In all, about 33,000 sequences were measured (“E-score (-0.5 to 0.5)”: median about -0.016, highest 2% from about 0.32 on). The list shows a part of the results.
Biological target: T1, Stp1 (UniProt B3LFK1)
T1 sequence: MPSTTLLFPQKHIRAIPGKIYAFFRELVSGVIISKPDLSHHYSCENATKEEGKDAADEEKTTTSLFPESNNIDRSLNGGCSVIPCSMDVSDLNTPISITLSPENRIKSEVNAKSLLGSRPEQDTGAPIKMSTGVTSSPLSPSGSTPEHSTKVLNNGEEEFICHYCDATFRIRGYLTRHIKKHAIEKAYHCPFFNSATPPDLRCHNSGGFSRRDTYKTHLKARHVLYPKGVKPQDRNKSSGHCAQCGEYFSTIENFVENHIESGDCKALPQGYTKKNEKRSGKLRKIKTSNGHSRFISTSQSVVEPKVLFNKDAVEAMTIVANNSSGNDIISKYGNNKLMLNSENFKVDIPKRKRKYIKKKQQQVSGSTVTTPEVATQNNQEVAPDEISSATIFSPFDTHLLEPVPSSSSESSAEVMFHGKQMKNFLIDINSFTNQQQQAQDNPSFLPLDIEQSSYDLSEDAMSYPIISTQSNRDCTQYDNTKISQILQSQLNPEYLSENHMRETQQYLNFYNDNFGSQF
Experiment: PBM E-score (8-mer binding enrichment) (E-score (-0.5 to 0.5)); higher = stronger / more preferred TF binding; most listed sequences are background and not binding sites
Conditions: protein concentration: 200 nM; construct: GST-full length
In short: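 Universal all-10-mer Agilent arrays, double-stranded by primer extension on fresh or once-stripped slides, were probed with about 100-200 nM GST-tagged yeast transcription factors made by PURExpress. Fluorescent anti-GST detected bound protein, and masliner normalised the scans. E-scores from the Universal PBM Analysis Suite were given to each ungapped eight-base word pooled with its reverse complement.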

Sequence	PBM E-score
CGAGTTAA	0.173
CGGGCCTC	-0.00487
CACTGAAG	0.0432
AAGAGTCT	-0.209
CAAGGTCG	-0.241
CCATTAGC	-0.0162
CGATTCAG	-0.0722
GCTGTCTA	-0.0314
AATTGGTA	0.109
AGTCGATC	-0.128
TCCTAACA	-0.038
TACCACAA	0.00188
AGCAGGCA	-0.0398
ACGACAAA	0.157
ACGTAGCG	-0.152
CTTCAGCC	-0.266
AAAACACC	0.0808
ACTATCAT	0.226
ATGGAGTG	-0.176
AAACGGCT	0.376
AAGTGAAG	-0.135
CGCCAGGC	-0.0916
AGTACTCG	-0.0558
ACTCCGCT	-0.139
CTTTTCCA	-0.0803

Sequence	PBM E-score
CTCAGGCC	-0.336
CGTGCCTA	0.184
ACCGCAAC	-0.0924
CGTATATC	0.101
ATCCCCCC	-0.44
TCAATCAA	0.0678
AGTTCACA	-0.141
AGGTTAGA	-0.172
ACCCCATA	0.0155
CCTTGAAG	-0.105
AGAAGGAT	-0.358
CACATCAA	0.0988
TACGTGCA	0.14
AGCTCTAG	-0.108
GAATCAAC	0.123
CATGGGTC	-0.296
GGGTCGTA	-0.115
GACACGAA	-0.111
GCGTTATA	0.0294
GACTCCCA	-0.278
GCCATTAA	0.139
GCATGCAC	0.0122
CCGAATCA	0.0344
ACAGTCCC	-0.22
TAGGGGAA	-0.171

Sequence	PBM E-score
GGCTTTAA	0.106
CTGCGTCC	-0.158
CAATCGGG	-0.13
ATACTAAA	0.187
AGCCAAAC	0.00731
CGAATCTC	-0.207
CGCGTCAA	0.077
ATCGTGAG	-0.0633
AGCAAATG	-0.0782
TAGAGACA	-0.0793
GGCATTAC	0.364
ATCCTGTA	-0.0239
GAGATCTC	-0.168
CATGCAAG	-0.0447
CCGAGCTA	-0.139
CACGAGGA	0.102
AGATGAGC	0.0872
TATGTAGA	-0.0955
CTACAGAG	-0.0642
GGAATATA	0.055
GCACGCAA	-0.0758
CGCCTAGC	-0.0148
CGCCTACA	-0.0042
AGTAACAA	0.0362
AAAAGTGA	0.0395

Sequence	PBM E-score
GGAACGGA	0.136
GAGTCATA	-0.0359
ATATTTAC	0.162
ATGGTGGC	-0.321
GTGATTCA	-0.0153
ACGCTGGG	-0.265
GGTAGTTA	-0.048
CGGCGGGC	0.192
ATGGACGG	0.17
ACATATAC	-0.0472
AGGCAAGG	-0.0739
CGGCAGGC	0.136
ACTGGGAT	-0.0789
CGATGGAG	-0.0281
GGAGTCGA	-0.171
CGTACGAC	0.0388
CAGATCAC	-0.139
CGTAATTA	0.0434
AAACTATA	0.0206
AAACCTTA	0.0927
ACTACGTG	-0.192
CATCAAAG	0.0965
AGCTAAAG	-0.0869
GGCTGCGA	0.0765
CACCGTGG	-0.127

Sequence	PBM E-score
CAGTCCGC	0.00123
CAAATACC	-0.013
CCGCTGCC	0.0976
ATGCGAGA	-0.107
ACGACGCC	0.202
AACCCCCG	-0.211
AACCCCAG	-0.336
AACTGCGA	-0.173
ATTTTTCC	0.0398
CTGGAAGA	-0.0768
AGAAAGAA	0.00711
AGGTGCGA	-0.253
GCTGCTGA	0.189
CAAGCTGG	-0.152
ATTGCAAC	0.0596
CCAACGCC	0.128
AAACCGGG	-0.195
TAGATAGA	-0.0312
TCATTCGA	-0.0622
ATTTAGAC	0.0406
GCGCGTAA	0.188
TACTGATA	0.184
AGTCACAC	-0.0939
CTTTTTGC	0.0819
AGATGTAG	-0.207

Sequence	PBM E-score
AGATCGGC	0.104
AGGGATAG	-0.0778
CTAGTTCA	-0.0733
GCTCTCCA	-0.139
CTGACCGA	-0.182
AACTTTCA	0.114
GCAGCGTA	-0.105
AAAGGCCT	-0.00851
AAAGAACC	0.071
AATTATCA	0.224
AGGACACG	-0.163
AAGAAGCG	-0.0887
CGATTCAC	0.00707
ATACGCAA	0.109
ACTGGGGA	-0.305
AACTGGAC	-0.0374
AGTCTTGA	-0.154
ACGCCAAG	-0.223
CCGGGCTC	-0.23
AGGGTCGC	0.0437
GAACGAGC	0.173
AATAAGCA	0.121
AACCTCCA	-0.308
GACTGCGA	-0.104
CCCACCAC	-0.138

Sequence	PBM E-score
GATGGTGA	-0.131
GCGGGAAC	-0.111
ATGCCTAA	0.109
ACCGCCTG	-0.179
ATCTACCA	-0.00201
GAGGACTA	-0.174
GAGTGACA	-0.00365
CTAACGTC	0.0864
CGCTGGAG	-0.107
CACGAACG	0.115
ATGATGTA	0.0319
AGCACATA	0.0458
ATTTCCCC	-0.176
GATGCACA	-0.0773
GTTGTCGA	-0.101
ACTCGGGC	0.0689
CCGGAGAG	-0.196
CTAACCGC	-0.132
AGGTGGTG	-0.188
CTATAGAA	-0.00745
GATGATCC	-0.027
GGTATTTA	0.0735

From the supplement of paper PMC3334620
